The whole screen tested about 410,000 compounds, of which about 6,400 (1.6%) were called active. The shares of active, inactive and inconclusive entries below differ from those in the screen. The call rests on the fitted dose curve; in most records, active means well fitted inhibition curve with a large enough effect; inconclusive means small, poorly fitted or top-dose-only effect; inactive means no such curve, though single readings can be large or run the other way. No potency is given beside an inconclusive call; the fits are too rough.
What follows are compounds tested against Glucagon-like peptide 1 receptor (Homo sapiens) (UniProt P43220) (assay: qHTS of GLP-1 Receptor Inverse Agonists (Inhibition Mode)). Conditions: HEK293 GLP-1R CRE-luciferase, luminescence, 24 h, GLP-1R form is constitutively active; activity change, negative = inhibition: at 38.3 µM (top of the series) unless noted.
Method in brief: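 qHTS in 1536-well format: reporter HEK293 cells expressing constitutive GLP-1R activity in DMEM + 10% Nu serum, 24 hr with compounds at 37 deg C, luminescence read after 12 min with detection reagent.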
Further: nearly all actives have a fitted effect of over 55% in size.
On the % scale 0 is the no-effect control and ±100 the full control effect; potency means the concentration at half of the fitted maximal effect; tags describe the fitted curve by direction and shape.

Chain of UniProt P43220 (P43220 whole entry, looked up): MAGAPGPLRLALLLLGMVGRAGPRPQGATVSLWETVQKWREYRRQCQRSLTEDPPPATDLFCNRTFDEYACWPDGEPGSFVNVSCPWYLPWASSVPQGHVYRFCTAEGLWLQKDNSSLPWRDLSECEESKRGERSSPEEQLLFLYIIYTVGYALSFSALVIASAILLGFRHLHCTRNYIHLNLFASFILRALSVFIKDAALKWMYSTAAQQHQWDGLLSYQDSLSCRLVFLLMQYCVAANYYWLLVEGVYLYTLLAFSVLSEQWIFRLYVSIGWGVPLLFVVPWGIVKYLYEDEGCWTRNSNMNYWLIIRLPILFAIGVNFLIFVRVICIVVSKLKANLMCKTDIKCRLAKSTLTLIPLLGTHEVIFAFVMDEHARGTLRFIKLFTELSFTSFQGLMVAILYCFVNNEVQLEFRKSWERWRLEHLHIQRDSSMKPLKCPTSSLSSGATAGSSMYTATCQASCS

Row | Structure (SMILES) | Potency | activity change, negative = inhibition
1 | CC(C)(C)c1ccc(OCCOCCn2cnc3ccccc3c2=O)cc1 | inconclusive [inhibitor, single point] | –
2 | Cc1ccc(-c2cnc3cc(C)nn3c2)cc1 | inconclusive [inhibitor, single point] | –
3 | CC(C)(C)n1ncc2c(=O)n(CC(=O)c3ccc(Cl)cc3)cnc21 | inconclusive [inhibitor, single point] | –
4 | CCc1nnc(NC(=O)CCC(=O)N2CCN(CCOc3ccc(C)cc3)CC2)s1 | – | inactive: -29.5%
5 | O=C(/C=C/c1ccc(Cl)cc1Cl)c1ccc[nH]1 | inconclusive [inhibitor, single point] | –
6 | Cc1ccc(C(=O)/C=C/c2ccccc2[N+](=O)[O-])cc1 | inconclusive [inhibitor, full curve] | –
7 | CCC1CCc2sc(C(=O)N(C)CC(=O)Nc3ccc(N4CCOCC4)cc3)cc2C1 (configuration not stated) | inconclusive [inhibitor, single point] | –
8 | O=C(CC1N=C2c3ccccc3N=C(SCc3cccc(Cl)c3)N2C1=O)NCc1ccc2c(c1)OCO2 (configuration not stated) | inconclusive [inhibitor, single point] | –
9 | O/N=C/c1ccccc1OCc1ccc(Cl)cc1 | inconclusive [inhibitor, single point] | –
10 | Cc1ccc(OCCn2cc(/C=C3\C(=O)NN(c4ccccc4)C3=O)c3ccccc32)cc1 | – | inactive: 0.335%
11 | Cc1ccc(C(=O)N2CCN(c3ccc(F)cc3)CC2)cc1S(=O)(=O)N1CCCCC1 | inconclusive [inhibitor, partial curve, poor fit] | –
12 | CCOC(=O)c1sc(=S)n(-c2ccc(OC)cc2)c1C | inconclusive [inhibitor, partial curve] | –
13 | N#C/C(=C\c1ccc(-c2ccc(C(=O)O)cc2)o1)C(=O)Nc1ccccc1C(=O)O | – | inactive: 10.2%
14 | CCC(C)NCCOc1ccc(C)cc1[N+](=O)[O-] (configuration not stated) | – | inactive: -9.22%
15 | CS(=O)(=O)N(CC(O)Cn1c2ccccc2c2ccccc21)c1ccccc1 (configuration not stated) | inconclusive [inhibitor, partial curve, poor fit] | –
16 | CCN(Cc1ccccc1)S(=O)(=O)c1ccc(C(=O)N(CCCN(C)C)c2nc3c(C)c(C)ccc3s2)cc1 | inconclusive [inhibitor, full curve, poor fit] | –
17 | CCOc1ccccc1OCCOCCOc1ccccc1[N+](=O)[O-] | – | inactive: -8.32%
18 | Cc1ccc(C)c(OCCNc2ccc([N+](=O)[O-])cn2)c1 | inconclusive [inhibitor, partial curve, poor fit] | –
19 | Cc1c(NC2=NC3(CCCCC3)Cc3ccccc32)c(=O)n(C)n1-c1ccccc1 | inconclusive [inhibitor, partial curve, poor fit] | –
20 | O=C(Nc1ccc(Cl)c(Cl)c1)N1CCSC1c1ccco1 (configuration not stated) | inconclusive [inhibitor, single point] | –
21 | COc1ccc(OC)c(NC(=O)C2(C)CCN2C(C)C)c1 (configuration not stated) | inconclusive [inhibitor, single point] | –

Row | Structure (SMILES) | Potency | activity change, negative = inhibition
22 | COc1ccc(CCC(=O)Nc2ccc(-c3noc(-c4ccc(OC)c(OC)c4)n3)cc2)cc1 | – | inactive: 5.05%
23 | CCOC(=O)c1ccc(N2C(=O)C=CC2=O)cc1 | – | inactive: 0%
24 | COc1ccccc1Cc1c(-c2ccc(Cl)cc2)nc2ccc(Cl)cn12 | inconclusive [inhibitor, single point] | –
25 | S=C1NC2=C(CCC/C2=C\c2ccccc2)C(c2ccccc2)N1 (configuration not stated) | – | inactive: 3.15%
26 | CC(=O)c1cccc(NC(=S)NC(=O)CC(C)(C)C)c1 | inconclusive [inhibitor, single point] | –
27 | COc1ccc(-c2cn(-c3ccc(C)cc3)c(S(=O)(=O)CC(=O)Nc3ccc(F)cc3)n2)cc1 | inconclusive [inhibitor, single point] | –
28 | CCOC(=O)c1ccc2c(c1)N(CC(=O)N(C)c1ccccc1)C(=O)c1ccccc1S2 | – | inactive: -3.17%
29 | COc1ccc(O)c(C(=O)CC(=O)c2ccccc2C)c1 | inconclusive [inhibitor, single point] | –
30 | O=C(OCCN1CCCCC1)C1(c2ccccc2)CCCC1 | inconclusive [inhibitor, single point] | –
31 | Cc1ccc2cccc(CC(=O)NN)c2c1 | inconclusive [inhibitor, partial curve, poor fit] | –
32 | CN1CCN(Cc2nc3cc(NC(=O)COc4ccc([N+](=O)[O-])cc4)ccc3n2C)CC1 | inconclusive [inhibitor, partial curve, poor fit] | –
33 | COc1ccc(CC(N)c2csc(Nc3ccc(C(=O)c4ccccc4)cc3)n2)cc1 (configuration not stated) | inconclusive [inhibitor, partial curve, poor fit] | –
34 | CCCNC(=O)C1CC(=O)N(c2ccc(OCc3ccc(Cl)cc3)cc2)C1 (configuration not stated) | inconclusive [inhibitor, single point] | –
35 | O=C(COc1ccc(Br)cc1CO)Nc1ccc(F)cc1 | inconclusive [inhibitor, single point] | –
36 | CCCCCCCNC(=O)C1(CC2CC(c3cccc(Br)c3)=NO2)CCN(C(=O)C2(C)CC2)CC1 (configuration not stated) | inconclusive [inhibitor, single point] | –
37 | Cc1ccc(SCc2nc(-c3cccnc3)no2)cc1 | – | inactive: -16.6%
38 | Cc1c(C(=O)NCc2cccc(Cl)c2)sc2ncnc(N(C)C3CCCCC3)c12 | inconclusive [inhibitor, single point] | –
39 | Cc1ccc(S(=O)(=O)Nc2cccnc2Oc2ccc(Cl)cc2)cc1 | inconclusive [inhibitor, partial curve] | –
40 | C=C(C(=O)c1ccccc1)C(c1ccccc1)C(C)C(=O)c1ccccc1 (configuration not stated) | inconclusive [inhibitor, partial curve, poor fit] | –
41 | O=C(N/N=C/c1cn(-c2cccs2)nc1-c1ccccc1)c1ccccc1O | inconclusive [inhibitor, single point] | –
42 | Nc1c(C(=O)NCc2ccccc2)c2nc3ccccc3nc2n1-c1ccc2c(c1)OCO2 | inconclusive [inhibitor, partial curve, poor fit] | –
